Experimental data from the supplement of paper PMC12217912.
This is one part of the list. Sequences were assembled here from the parent chain. Values near 0.05 are background.

B1: TEV protease; numbered along this chain (parent)
chain: MGESLFKGPRDYNPISSSICHLTNESDGHTTSLYGIGFGPFIITNKHLFRRNNGTLVVQSLHGVFKVKDTTTLQQHLVDGRDMIIIRMPKDFPPFPQKLKFREPQREERICLVTTNFQTKSMSSMVSDTSCTFPSGDGIFWKHWIQTKDGQCGSPLVSTRDGFIVGIHSASNFTNTNNYFTSVPKNFMELLTNQEAQQWVSGWRLNADSVLWGGHKVFMVKPEEPFQPVKEATQL

Variants of: B1
Test: raw area under fraction-flipped curve 0-4 h after induction (AUC4h, not background-subtracted), DNA-recorder readout of cleavage of the substrate (dimensionless); higher = more cleavage of the substrate by the protease variant
Details: temperature: 34 °C; time window: 0-4 h after rhamnose induction
Method: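 In vivo DNA recorder in E. coli TOP10(DE3) ΔrhaA at 34 °C. Each TEVp single-site mutant (parent TEVp 0) is paired with a single-site variant of the 7-mer TEVs (canonical ENLYFQ|S). The substrate sits between flexible linkers in a Bxb1-sfGFP-TEVs-SsrA fusion, so cleavage stabilises Bxb1 and speeds flipping of a recombination array, read by NGS. The value is the raw area under the fraction-flipped curve over 0-4 h after rhamnose induction (AUC4h), with ≥20 reads per time point. It is not background-subtracted; inactive controls average about 0.047.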
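Further: Bxb1 expression induced with 0.2% (w/v) L-rhamnose at OD600 near 0.5, cultures sampled hourly, flipped fraction per protease–substrate barcode pair counted by paired-end Illumina sequencing.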

| Variant | area with substrate EALYFQS | area with substrate ECLYFQS | area with substrate EDLYFQS | area with substrate EELYFQS | area with substrate EFLYFQS | area with substrate EGLYFQS | area with substrate EHLYFQS | area with substrate EILYFQS | area with substrate EKLYFQS | area with substrate ELLYFQS | area with substrate EPLYFQS | area with substrate EQLYFQS | area with substrate ERLYFQS | area with substrate ESLYFQS | area with substrate ETLYFQS | area with substrate EVLYFQS | area with substrate EWLYFQS | area with substrate EYLYFQS | area with substrate EMLYFQS |
| --- | --- | --- | --- | --- | --- | --- | --- | --- | --- | --- | --- | --- | --- | --- | --- | --- | --- | --- | --- |
| S17W | 0.129 | 0.0998 | 0.117 | 0.12 | 0.0686 | 0.1 | 0.131 | 0.0942 | 0.112 | 0.12 | 0.0982 | 0.11 | 0.123 | 0.0877 | 0.101 | 0.0871 | 0.0688 | 0.119 | – |
| F226C | 0.162 | 0.101 | 0.155 | 0.0926 | 0.143 | 0.103 | – | 0.0955 | 0.133 | 0.109 | – | 0.145 | 0.122 | 0.141 | 0.107 | 0.122 | 0.103 | 0.122 | – |
| N24Q | 0.0837 | 0.0956 | 0.11 | – | 0.0821 | – | 0.109 | 0.0654 | 0.0866 | – | – | 0.106 | 0.113 | 0.0821 | 0.0904 | 0.0708 | 0.0935 | – | 0.096 |
| N13S | 0.115 | 0.0897 | 0.129 | 0.167 | 0.104 | 0.0912 | 0.11 | 0.0583 | 0.105 | 0.0843 | 0.191 | 0.0967 | – | 0.0892 | 0.102 | 0.102 | 0.0861 | 0.0734 | 0.0984 |
| N13W | 0.113 | 0.0857 | 0.0941 | 0.115 | 0.072 | 0.0972 | 0.0944 | 0.0789 | 0.0842 | 0.079 | 0.0981 | 0.109 | 0.0909 | 0.0818 | 0.0807 | 0.0863 | 0.0742 | – | 0.13 |
| N13T | 0.0795 | 0.0974 | 0.145 | 0.126 | 0.112 | 0.125 | 0.128 | 0.113 | 0.0642 | 0.0864 | – | – | 0.108 | 0.124 | 0.116 | 0.0999 | 0.0987 | 0.109 | 0.142 |
| G136T | 0.116 | 0.111 | 0.122 | 0.128 | 0.0901 | 0.0783 | 0.112 | 0.0781 | 0.126 | 0.0881 | 0.138 | 0.124 | 0.093 | 0.0878 | – | 0.0858 | 0.0944 | – | 0.108 |
| G136L | 0.128 | 0.097 | 0.135 | 0.121 | 0.114 | 0.1 | 0.124 | – | 0.0625 | 0.0933 | 0.112 | – | 0.108 | 0.105 | 0.109 | 0.0959 | 0.0956 | 0.106 | 0.113 |
| N177E | 0.106 | 0.109 | 0.106 | 0.126 | 0.115 | 0.101 | 0.0855 | 0.108 | 0.109 | – | 0.11 | 0.122 | 0.0889 | 0.121 | – | 0.0829 | 0.0979 | 0.112 | 0.0912 |
| L56S | 0.0571 | – | 0.0507 | – | – | 0.0464 | 0.0519 | 0.0276 | 0.0575 | 0.0503 | 0.062 | 0.0492 | 0.047 | 0.0603 | – | – | – | – | 0.0611 |
| unchanged | 0.121 | 0.103 | 0.127 | 0.12 | 0.108 | 0.101 | 0.111 | 0.0963 | 0.107 | 0.0926 | 0.119 | 0.119 | 0.104 | 0.105 | 0.11 | 0.0984 | 0.0967 | 0.108 | 0.113 |
